# Measured values taken from the supplement of paper PMC3334620.
# The full ranking holds about 33,000 sequences; the median of “E-score (-0.5 to 0.5)” is about -0.011, and the highest 2% start at about 0.28. This is one part of the list.
# Biological target: T1, Gcr1 (UniProt P07261)
# T1 sequence: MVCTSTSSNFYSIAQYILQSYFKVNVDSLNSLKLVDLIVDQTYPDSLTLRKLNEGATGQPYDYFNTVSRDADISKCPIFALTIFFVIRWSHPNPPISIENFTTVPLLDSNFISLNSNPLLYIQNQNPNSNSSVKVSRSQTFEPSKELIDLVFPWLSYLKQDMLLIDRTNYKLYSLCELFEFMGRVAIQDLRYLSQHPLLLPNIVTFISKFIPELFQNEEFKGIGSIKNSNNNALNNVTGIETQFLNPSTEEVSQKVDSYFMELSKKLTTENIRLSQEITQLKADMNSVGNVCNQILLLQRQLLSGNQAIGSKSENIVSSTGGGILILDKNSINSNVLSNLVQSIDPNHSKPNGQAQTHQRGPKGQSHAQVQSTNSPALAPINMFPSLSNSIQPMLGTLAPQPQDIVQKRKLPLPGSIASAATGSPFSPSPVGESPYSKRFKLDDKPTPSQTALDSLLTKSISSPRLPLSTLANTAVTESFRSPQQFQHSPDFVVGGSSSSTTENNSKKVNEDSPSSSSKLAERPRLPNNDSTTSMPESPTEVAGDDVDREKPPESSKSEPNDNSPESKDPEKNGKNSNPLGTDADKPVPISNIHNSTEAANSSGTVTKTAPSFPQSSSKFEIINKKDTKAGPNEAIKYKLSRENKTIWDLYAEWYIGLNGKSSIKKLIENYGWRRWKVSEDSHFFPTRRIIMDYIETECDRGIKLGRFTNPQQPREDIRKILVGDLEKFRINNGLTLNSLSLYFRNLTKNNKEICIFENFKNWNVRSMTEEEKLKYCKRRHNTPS
# Assay: PBM E-score (8-mer binding enrichment) (E-score (-0.5 to 0.5)); higher = stronger / more preferred TF binding; most listed sequences are background and not binding sites
# Conditions: protein concentration: 100 nM; construct: GST-full length
# Procedure, shortened: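 Each ungapped eight-base word and its reverse complement, pooled, received an E-score from the Universal PBM Analysis Suite. Underlying scans, normalised with masliner, recorded fluorescent anti-GST bound to GST-tagged yeast transcription factors. These were applied at about 100-200 nM to universal all-10-mer Agilent arrays double-stranded by primer extension.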
row,Sequence,PBM E-score
1,ACTCGGCT,0.00557
2,AATCTTAC,0.0708
3,AGTCCATA,0.0134
4,CGGCAGCC,0.382
5,GCAGACCC,-0.0344
6,CGTATTCC,0.24
7,CATGGTGG,-0.0928
8,GCGCCTAA,0.407
9,ACTAACCA,0.117
10,CATAGGAG,0.11
11,ACCCGACG,-0.182
12,AGAGATTA,-0.207
13,CCGTTGCC,0.00903
14,CCCGGCGC,0.0481
15,ATCTGAAT,0.0942
16,ACTGAAGA,0.106
17,AGGGGGAG,-0.157
18,AGCCGTTG,0.0658
19,AGAACCGG,0.214
20,ATCCCCAG,0.126
21,ACGCCTCC,0.0986
22,AAATCCTA,0.0198
23,CACCGAAA,0.189
24,ACCAATTG,-0.0455
25,ATCTGCGG,0.157

row,Sequence,PBM E-score
1,CTCACAGC,0.124
2,CCATGTAA,0.0814
3,AGCGGAAA,-0.0908
4,ACTCTCAT,-0.114
5,AGATACCA,0.246
6,CCGAACTC,-0.0172
7,AGTGCAGG,-0.0784
8,ACAGGGAG,0.109
9,GGCTGTCA,-0.0699
10,CCACGGCA,0.115
11,AGTCATTG,-0.0859
12,AGTGTTAG,0.0279
13,TCAGGCCA,-0.118
14,ATACCTTA,0.0274
15,TAAGGCAA,-0.0981
16,AACGAAGC,0.00062
17,CGACACGA,-0.0946
18,CTCAATTA,0.0305
19,CCTTCTCC,-0.0698
20,CCAACGTC,0.0498
21,ATCCTCAT,0.0995
22,AGGCAGTC,-0.0354
23,GGTCCGCA,-0.0582
24,CTAATAAG,0.104
25,ACCTGCAT,-0.0634

row,Sequence,PBM E-score
1,AAGGCATG,-0.252
2,AGGCGTAA,0.0474
3,CGCATACC,0.0741
4,ACTAGCAT,0.0973
5,ACATATTC,-0.0095
6,CAGACGGA,-0.102
7,AAACCTGT,0.048
8,CCGATCCA,-0.0319
9,AATCGGCC,-0.124
10,GGTGATTA,-0.0403
11,AACGGGCT,-0.0767
12,ACCCTCCA,-0.248
13,CATCAGGG,-0.0704
14,AGCAACCG,0.0554
15,CTGACTTC,0.0741
16,GGCCCCAC,0.171
17,CACGCTGG,-0.101
18,CAAGTACA,-0.0256
19,AAAGTTTC,-0.0214
20,CAGGTGAG,-0.17
21,GGCAATGA,-0.202
22,GAGTCGCA,-0.0558
23,AGGTTGAC,-0.121
24,GTACATTA,0.0835
25,AAGGATTA,-0.0552

row,Sequence,PBM E-score
1,CTAGTTAC,0.0374
2,AACTTGCG,0.179
3,ATCAGACA,0.0171
4,AATTTGCA,0.113
5,GCGTAACA,-0.179
6,GTCAAACA,-0.19
7,CCCATGGC,-0.0318
8,CTCCTTCA,-0.1
9,CAGGGGCA,-0.0399
10,AGGGATAT,-0.234
11,ATAAACAA,0.171
12,AGTTTGTG,-0.0544
13,CTCATGAA,-0.0263
14,AATTTAAC,0.0873
15,CACACTAC,0.0353
16,GTCCCGTA,-0.0249
17,ATCCACGG,0.116
18,CCGTATCC,0.0884
19,CATGTGCC,-0.113
20,TTAAAAAA,0.246
21,GTAGCATA,-0.0283
22,ATTATTCG,0.218
23,CGTAATAC,0.0883
24,CCGCTGGA,0.199
25,ACCCCGTG,-0.0766

row,Sequence,PBM E-score
1,CGAGCGAG,-0.157
2,GTAAGGAA,-0.0734
3,AGGTGTAG,-0.134
4,CATGCAGA,-0.0148
5,CTAGGCTA,-0.116
6,AGCGGCAC,-0.059
7,AATCGTAT,0.0808
8,GATATTAC,0.091
9,AGCGGTGC,0.00983
10,CGCGTTTC,-0.0862
11,CCCTTGGC,-0.185
12,GTCTGGGA,-0.192
13,AAATAGAA,-0.145
14,GGGTAACC,-0.1
15,AAATATTC,0.149
16,CGAGTAAA,0.00307
17,ATGTGCGG,-0.00564
18,ACTATTCC,0.0212
19,GGTACTGA,-0.058
20,GAGTCGCC,-0.0807
21,CGGTTGAG,-0.0776
22,GCGCTAAA,0.232
23,GTTCGTTA,-0.142
24,AAGTCGGT,-0.0631
25,GGCACTAC,-0.154

row,Sequence,PBM E-score
1,CGATTTAG,0.161
2,AACGCGTA,0.014
3,AGAACACG,0.156
4,CAACACAG,-0.126
5,GGCGTTGA,-0.102
6,GTTACTGA,-0.0899
7,ACCTTGCC,-0.00557
8,ACGCCAAC,-0.00493
9,GGCCGAGA,-0.181
10,TGCTGGAA,0.136
11,ACACGCCC,0.0251
12,GGAATCAA,0.178
13,GACATGGC,-0.266
14,CATACCCG,0.00256
15,GACCCGGA,-0.0989
16,CCAAGTGC,-0.0928
17,CCCGAGCA,-0.0641
18,CGGACAAC,-0.0131
19,ATAGTGAA,-0.116
20,GAGTACAA,-0.0749
21,ATGTCTTA,-0.0265
22,CCAGCTAA,-0.116
23,ATTCAGTA,0.0756
24,ACACGGGT,-0.114
25,GTAACGCA,0.0114

row,Sequence,PBM E-score
1,CCAGAGTC,0.21
2,ACAAACAT,0.145
3,AAAAGCTG,-0.181
4,CACATGAC,-0.16
5,AATAATGT,0.128
6,CGAACGGA,-0.0163
7,GTAATGCA,-0.0798
8,TCCCAAGA,0.0324
9,ACCTACAC,-0.0279
10,GACCGGCA,-0.0929
11,GTGATGAA,-0.0109
12,ATTTAAGA,0.0701
13,ACGTAGCC,0.14
14,ACATTACC,-0.0191
15,ACAGGGCT,-0.181
16,GTACCCCA,0.119
17,CTACGTCC,0.0209
18,CCCCTCAA,-0.118
19,AAGGTGTG,0.033
20,GGGCTTAC,-0.0118
21,ACATGATA,0.151
22,ACAGGAAA,0.125
